# Experimental data reported in paper PMC12136788.
# The list shows a part of the results.
# T1: UNK ZnF1-3 (human, UniProt Q9C0B0 31-174)
# T1 sequence: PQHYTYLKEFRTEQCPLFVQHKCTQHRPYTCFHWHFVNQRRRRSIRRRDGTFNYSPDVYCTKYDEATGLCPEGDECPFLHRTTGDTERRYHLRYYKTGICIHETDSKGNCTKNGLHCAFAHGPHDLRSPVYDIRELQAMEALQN
# B1: chr5:36177297:36177298:+_ENSG00000145604_ENST00000274255|hu_mus|FALSE|FALSE (ssRNA)
# RNA: GGGAGUUCUACAGUCCGACGAUCCUUUAGCAUGAUACUGUCACUUAAGUCGAGGCGGAUGAGGUUGGGGCAUCGUUUAAUUAUGGUACAAAGAUCUGUUUUCUGGAGGUUCUUUCGGUAGCCGCUGAGGUUCAGCUGGGUGAUCAACAGAGGAUUGAGCAUCA
# B2: 44445012_44445132_2323_3pUTR_ENSMUSG00000032097_ENSMUST00000170489|mouse|control|control (ssRNA)
# RNA: GGGAGUUCUACAGUCCGACGAUCGAGACUUCAACGUGAAACCAAAAUGAAGAGGCAAAGAAAUAAAAAAGAAAAUAGAACAUGACUCUGUUGAUUCCUUGGGCUGUGUGUAAAGAUGAUAUUCUUAAUGGUCUUGUAGCAUAACAACAGAGGAUUGAGCAUCA
# B3: chr1:60041781:60041782:+_ENSMUSG00000041040_ENSMUST00000036540|mus_hu|mus_mus_mus_hu_False|58_98 (ssRNA)
# RNA: GGGAGUUCUACAGUCCGACGAUCAAGUUUACAAUAGCUCAACUUUAGCAGUAGUGGCAAAUUUUCUUUUAUUUUCCUUCCUAAAAGAAAAUCUUUAUAACCCAGUCCUAGUCUUGGACAUAGUGAAAGCUAUAAAUUCUGACUCAACAGAGGAUUGAGCAUCA
# B4: chr2:153583694:153583695:+_ENSMUSG00000027479_ENSMUST00000028981|perfect_dup|motif|central (ssRNA)
# RNA: GGGAGUUCUACAGUCCGACGAUCAAAAAACUUCUUGAACCAUUGAACAAAUUCAAAAUUGUCCUGAAAUUUUCCUUUUACGGAUUUAUCCACAGGAAUUAUUUUGUCAACGCCCAUCCUCUUGAAGCCUGCUUGUAGUAUUUUCAACAGAGGAUUGAGCAUCA
# B5: 152858176_152858296_649_CDS_ENSMUSG00000042631_ENSMUST00000037235|mouse|control|control (ssRNA)
# RNA: GGGAGUUCUACAGUCCGACGAUCCUGCAGUAGCCAGACGCAGAGGCGGCAGCAGCGGCGGCGGUAGGUGCCGGCCGAGGAUGGUGCGGGCCGGGGGACCAGCUCCGCGCUACCUUCUUUGGUCCGGAAGGCGACAGCACUGUCCAACAGAGGAUUGAGCAUCA
# B6: chr5:71493198:71493199:+_ENSG00000131711_ENST00000296755|hu_hu|FALSE|FALSE (ssRNA)
# RNA: GGGAGUUCUACAGUCCGACGAUCUGCUGGUGGUUUUUCAAUGACUUCUGUAGGGAGAUGACUGGAUUUCUCGUCAGUAGGAGAUUGAUAGUAAGGUGUGUGACCAGCACUGCCAGUCACGGACUGAGAUGGUGACACCACUUCCAACAGAGGAUUGAGCAUCA
# B7: chr2:168009416:168009417:-_ENSMUSG00000051149_ENSMUST00000088001|perfect_dup|motif|central (ssRNA)
# RNA: GGGAGUUCUACAGUCCGACGAUCCAUAUGGUUGAGUAGGGUAUCUGUAGGCAAAUAGCGAUUACAGUAGAGGCAUUUGCGGGUAAAAUUGUGUAUUUUCAUAAUGUAGUUAGCUACGGCUGGGACUUUCUCAGCUUUAUGCUCCAACAGAGGAUUGAGCAUCA
# B8: 120674884_120675087_4202_CDS_ENSMUSG00000025153_ENSMUST00000055655|mouse|control|control (ssRNA)
# RNA: GGGAGUUCUACAGUCCGACGAUCCUGGCUUAGGAGGCUGGGCGCAGGCUGCACCUCAGAGGGUAGGCAGGCCAGGGUCUCCCCAAGGGCAUGUCCUUUGAGCACUGUGUGCACUAGCAGGAAACCACCUUCCUUGAGGGCAGCCAACAGAGGAUUGAGCAUCA
# B9: chr17:1257564:1257565:-_ENSG00000108953_ENST00000571732|hu_hu|FALSE|FALSE (ssRNA)
# RNA: GGGAGUUCUACAGUCCGACGAUCACCCUGCAUGUCUGAAGUCCAUAGUGUCAGAUUAUCACGUAACAACUGCAUGAUAAGUGUAGAGUCCUUAUAGCUUUCUUCACUCAGCGUAUCCAGUUCUGCAAUUGCAUCAUCAAAAGCCAACAGAGGAUUGAGCAUCA
# B10: 116602748_116602868_974_CDS_ENSG00000151553_ENST00000369248|human|control|control (ssRNA)
# RNA: GGGAGUUCUACAGUCCGACGAUCAUCCAUCUGAUGAGGAGGCUCAUCUUCCAAUUCUGUUUGCUCCAUUCCAGUAGCACCAGAUAGUUCCUCUGGUUGACGGGACUGUCCUGUAUCUGUUGACAAGGAAUCCUGACCUUUUAACAACAGAGGAUUGAGCAUCA
# B11: chr12:66249844:66249845:-_ENSMUSG00000047534_ENSMUST00000052201|mus_mus|FALSE|FALSE (ssRNA)
# RNA: GGGAGUUCUACAGUCCGACGAUCUAACAGCUGUCUGCUAGUUCUAUCAGAUGCCUUUCCUUCAGUGAGAAAGUCCUUGCUAACAGCAGAUUUGUAAUGUGACUCUUUAGCAGAAGAUCGAGGUCUCUUUGGUGUGAUAUAACACAACAGAGGAUUGAGCAUCA
# B12: chr3:176767854:176767855:-_ENSG00000177565_ENST00000430069|hu_hu|hu_hu_hu_mus_False|28_68 (ssRNA)
# RNA: GGGAGUUCUACAGUCCGACGAUCGACAUCCUUGUUACUGGGCACGUCCUGCCCUCCUUCCCGUAUGCAAUGUCUAAGCACGAGCUGCGUAGGGCCACUCGUGCUGUUCUCACUAAGGUUCCAGAUUCUUGCCGUGGAGUCUCCCAACAGAGGAUUGAGCAUCA
# B13: 103876369_103876489_536_5pUTR_ENSG00000155096_ENST00000337198|human|control|control (ssRNA)
# RNA: GGGAGUUCUACAGUCCGACGAUCCGCGAUCAGAGCCUGAAAGUGUGAGAAGGCGGCGCCAGCGACGCCAGUAUUUAUAUUAGGGGGCGUGGCCUGGUGACAUCACAGCUGGCCGGGCAGCCGCGCGAGCGGGGCGGAACCCGGCAACAGAGGAUUGAGCAUCA
# B14: chr7:99593754:99593755:+_ENSMUSG00000052572_ENSMUST00000098308|mus_mus|FALSE|FALSE (ssRNA)
# RNA: GGGAGUUCUACAGUCCGACGAUCCUUUAGUGCCUUCUUUCAGCUUAUAAAUGGCAAAAUAGACAAUUGACAGCCAUAAAGCUAGGCCAGGUGGAAUCUCCUCCUCUCUAAGGUUAGUCCUCCACACAGGACACACUUGUCUUUCAACAGAGGAUUGAGCAUCA
# B15: chr2:136607347:136607348:+_ENSMUSG00000027273_ENSMUST00000028727|mus_mus|FALSE|FALSE (ssRNA)
# RNA: GGGAGUUCUACAGUCCGACGAUCGAAUAGCCAUGAGGAACCAAAGACAGCACAUUUGGAGAGAUUCAGAGCCUGACACCCUAAGAAAGGAUUGUGGCAGUAGCUCUGUGGAAUGUCACAGUUUUACAAGAACAAUACUGUGUACAACAGAGGAUUGAGCAUCA
# B16: chr3:133011071:133011072:+_ENSMUSG00000028013_ENSMUST00000029644|mus_mus|motif|central (ssRNA)
# RNA: GGGAGUUCUACAGUCCGACGAUCCAAAGUCCCAAGGAUCUUCACAUGGACCACGUCUCCACGGGAAAGAACCUUUGAGCCGGUUUCACAGACGUCAAUGGGAUCAUUAUCCCCACAGCAGUCGGUGCUCUUAUCUCUUAGGUGCAACAGAGGAUUGAGCAUCA
# B17: chr7:149068622:149068623:-_ENSMUSG00000025139_ENSMUST00000001950|mus_hu|mus_mus_mus_hu_False|38_108 (ssRNA)
# RNA: GGGAGUUCUACAGUCCGACGAUCGUGCAGGUACUGAGUGUGGCUUGUGGUCUGUCCUGGGUUAGAGUUGUUAAUAUCACGGAACAUACCAUCUAGAGAGGUUCUGCCCCGCCUGACACCUUCAUUCCCAAUGGAGAAGAAAUCCAACAGAGGAUUGAGCAUCA
# B18: 85908490_85909826_741_3pUTR_ENSG00000165678_ENST00000372134|human|control|control (ssRNA)
# RNA: GGGAGUUCUACAGUCCGACGAUCACUGCACCCAUCACACCAGAAUGUAGCAACCAAGCAAGAUGCUUUGGGCCUGGGCUCUGGUCAUAUGGUAUUGAUCGUACCAGCAUUCCAGCUCCAACCAUGGCUGCAAAGGUCACACCACAACAGAGGAUUGAGCAUCA
# B19: chr4:107013644:107013645:+_ENSMUSG00000057375_ENSMUST00000075693|mus_hu|FALSE|FALSE (ssRNA)
# RNA: GGGAGUUCUACAGUCCGACGAUCCACAUAAUGGUACGUCUUCUCUCCCAGAUGGAUCAAGAAGUUGGAAAGAUUCCCACUAAUUGCUAUGGCAAAGACCAACGUGGCACAUAUCCAAAAGGGGCCAUAGAGAUCUGGAUUGCUCAACAGAGGAUUGAGCAUCA
# B20: 82904206_82904326_3817_CDS_ENSG00000005700_ENST00000306270|human|control|control (ssRNA)
# RNA: GGGAGUUCUACAGUCCGACGAUCAGCAACCCAACUGGCAGAGCUGGUAGUAUCAAUUCUGUUACUGGGAAUAGGCUGUGGAGCAGAUAUUUUAAGUAUUGGUGACUUUUCCCAUGGUUUUAAAUCUUCCCUAGAAUACACAGGCAACAGAGGAUUGAGCAUCA
# B21: chr17:65337135:65337136:-_ENSG00000197170_ENST00000584008|hu_hu|FALSE|FALSE (ssRNA)
# RNA: GGGAGUUCUACAGUCCGACGAUCUCUGGAAGUUGAUAAUUCCUGCUAAUCUGUCUACUUUAGCAAAGAUGGUCUUGUUAACUACUAGAUUUGAGAGAAAGGCUUCGGACUCAUCAACAGAUAGAUCCAGAAGCUGUGCCAUCCCAACAGAGGAUUGAGCAUCA
# B22: chr19:8913615:8913616:-_ENSMUSG00000071658_ENSMUST00000096259|mus_hu|mus_mus_mus_hu_False|8_58 (ssRNA)
# RNA: GGGAGUUCUACAGUCCGACGAUCAGGGUACCAAAACCUUCUGCCUGAAAUGGGUGCCCCACCCAGUAGGGAGUUGCAGCUAAAAAUAUCUGAUGCAGAAGCAGUGACUAUACGAAAGGAGGCCCCUGAUGCUCAGAAGGCCAGCAACAGAGGAUUGAGCAUCA
# Biological target: T1, UNK ZnF1-3
# Experiment: nsRBNS (natural sequence RNA bind-n-seq); RBNS binding buffer (assumed for nsRBNS): 25 mM Tris pH 7.5, 150 mM KCl, 3 mM MgCl2, 0.01% Triton X-100, 500 ug/ml BSA, 20 U/ml SUPERase-In, 4 C; UNK is unkempt and MSI1 is Musashi-1; names of the RNAs are library labels; protein concentration not given here; high values mean tight binding
row,Binder,binding signal
1,B1,1.32 enrichment R
2,B2,2.02 enrichment R
3,B3,0.456 enrichment R
4,B4,0.711 enrichment R
5,B5,0.836 enrichment R
6,B6,0.814 enrichment R
7,B7,2.18 enrichment R
8,B8,0.714 enrichment R
9,B9,0.954 enrichment R
10,B10,0.576 enrichment R
11,B11,1.03 enrichment R
12,B12,0.466 enrichment R
13,B13,1.59 enrichment R
14,B14,0.869 enrichment R
15,B15,1.71 enrichment R
16,B16,0.797 enrichment R
17,B17,0.927 enrichment R
18,B18,1.09 enrichment R
19,B19,1.25 enrichment R
20,B20,2.14 enrichment R
21,B21,1.03 enrichment R
22,B22,1.01 enrichment R
